PubChem BioAssay AID651820 (National Center for Advancing Translational Sciences (NCATS), 2012)
Hit rate of the full screen: of about 340,000 compounds, about 12,000 (3.5%) were called active. Inconclusive results, whose numbers are uncertain, are shown with a selection of clear calls. Calls come from the whole dose curve; as a rule, active = well fitted inhibition curve with a large enough effect; inconclusive = small, poorly fitted or top-dose-only effect, or another doubt; inactive = no such curve, though single readings can be large or run the other way. No potency is given beside an inconclusive call; the fits are too rough.

assay: qHTS Assay for Inhibitors of Hepatitis C Virus (HCV); conditions: Huh7.5.1 HCVcc-Cre (HCVcc is cell-culture hepatitis C virus) infection, luciferase reporter, 44 h; series mostly up to 41.8 µM
Method in brief: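 Cells seeded at 1,000/well and cultured 4 h, then compounds added followed by HCVcc-Cre virus (~0.5 moi). After 44 h further culture, luciferase substrate was added, plates held 15 min at room temperature, and luminescence read for 15 sec.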
Potency is the fitted concentration of half-maximal effect; tags give direction and shape of the fitted curve.

Structure (SMILES)	Potency
COc1ccc(C2/C(=C(/O)c3ccc(F)cc3)C(=O)C(=O)N2CCCN(C)C)cc1 (stereo unspecified)	inactive
CN(CC(=O)Nc1cccc(F)c1)C(=O)c1cn(-c2ccccc2)nc1-c1ccc(F)cc1	inconclusive [inhibitor, single point]
CCOC(=O)Cc1csc(NC(=O)c2cccs2)n1	inactive
Cc1ccc2nc(SCc3nc4ccccc4c(=O)[nH]3)[nH]c2c1	inactive
Cc1cc(N2CCN(Cc3cn(C)nc3-c3cccc(Cl)c3)CC2)cc(C)n1	active: 7.08 µM
Cc1onc(-c2c(F)cccc2Cl)c1C(=O)OCn1nnc2ccccc2c1=O	inconclusive [inhibitor, partial curve]
O=C(NCC1COc2ccccc2O1)c1ccc(NC(=O)c2ccco2)cc1 (stereo unspecified)	inconclusive [inhibitor, partial curve]
CCOC1=C(C#N)CC2(CC1)c1ccccc1-c1ccccc12	inconclusive [inhibitor, single point]
Cc1cc(N)c(NC2=CC(=O)CC(C)(C)C2)cc1C	inactive
CNC(=O)c1cccc2nc3ccccc3nc12	active: 11.2 µM
CC(C)[C@H](CO)N(Cc1cccc(F)c1)c1nc(Nc2cccc(Cl)c2)c2ncn(C(C)C)c2n1	inconclusive [inhibitor, single point]
CC(CCc1ccccc1)NC(=O)C1CCN(S(=O)(=O)N2CCCCC2)CC1 (stereo unspecified)	inconclusive [inhibitor, single point]
Cn1c(=O)c2c(ncn2CC(=O)N/N=C/c2ccco2)n(C)c1=O	inconclusive [inhibitor, single point]
CSc1nc(SCCN(C)C)c2c3c(sc2n1)COC(C)(C)C3	inconclusive [inhibitor, full curve, poor fit]
NC(=O)c1ccsc1NC(=O)c1nc(-c2ccccc2)n(-c2ccccc2)n1	inconclusive [inhibitor, partial curve]
OC[C@H]1O[C@H](OC[C@H]2O[C@H](OC[C@H]3O[C@H](O[C@]4(CO)O[C@H](CO)[C@@H](O)[C@@H]4O)[C@H](O)[C@@H](O)[C@@H]3O)[C@H](O)[C@@H](O)[C@H]2O)[C@H](O)[C@@H](O)[C@H]1O	inactive
O=C(N/N=C/c1cc2ccccc2nc1Cl)[C@H]1C[C@@H]1c1ccccc1	inconclusive [inhibitor, single point]
CSc1nnc(-c2cccs2)n1C	inactive
O=C(c1ccc(C(=O)N2CCCCCC2)cc1)N1CCCCCC1	inactive
O=C(CCCOc1ccc(Cl)cc1Cl)Nc1ccccn1	inconclusive [inhibitor, full curve, poor fit]
CC(C)c1ccccc1NC(=O)COc1ccc(C(=O)NCCc2ccccc2)cc1	inconclusive [inhibitor, single point]
O=C(O)CCCN1C(=O)/C(=C\c2ccc(-c3nc4ccccc4s3)o2)SC1=S	inactive
O=C(CSc1ccc(-c2cccc([N+](=O)[O-])c2)nn1)N1CCCC1	inactive

Structure (SMILES)	Potency
CCS(=O)(=O)NCc1csc(C)n1	inactive
CCOP(=O)(Nc1cccc2oc(=O)c3ccccc3c12)OCC	inconclusive [inhibitor, single point]
CN(C)S(=O)(=O)c1ccc(C(=O)Nc2ccc(F)cc2F)cc1	inactive
CCN(Cc1ccccc1)C(=O)CN1C(=O)c2ccccc2C1=O	inconclusive [inhibitor, single point]
O=C(CSc1nc(N2CCCCC2)nc(N2CCCCC2)n1)c1ccccc1	inconclusive [inhibitor, full curve, poor fit]
Cc1cc(N2C(=O)CCC2=O)n(-c2ccccc2)n1	inactive
O=C(N/N=C/c1c[nH]c2ccccc12)C1CC1(c1ccccc1)c1ccccc1 (stereo unspecified)	inconclusive [inhibitor, single point]
O=C(NCc1ccc2c(c1)OCO2)c1cc(-c2ccccc2)c(N2CCOCC2)s1	active: 14.1 µM
CCC(=O)N1CCN(c2ccc(NC(=S)NC(=O)c3ccc(OC)c([N+](=O)[O-])c3)cc2)CC1	inconclusive [inhibitor, single point]
COc1ccc(-c2csc3ncnc(N4CCN(S(=O)(=O)c5ccc(C(C)=O)cc5)CC4)c23)cc1	inconclusive [inhibitor, partial curve]
CC(C)(Oc1ccc(Cl)cc1)C(=O)NCCN1C(=O)S/C(=C/c2cccnc2)C1=O	inactive
COC(=O)c1cc2oc(C)cc2n1CC(=O)Nc1ccc(C)c(C)c1	active: 3.98 µM
CC(=O)Nc1cc(NC(C)=O)c(N=Nc2ccccc2)cc1C	inconclusive [inhibitor, single point]
CC1CCC(C(C)C)C(OCC(O)CN2CCCC(C)C2)C1 (stereo unspecified)	inconclusive [inhibitor, single point]
O=C(CCCOc1ccc(Cl)cc1Cl)N/N=C/c1ccccc1O	inconclusive [inhibitor, partial curve]
COc1ccccc1CCC(=O)NCCCn1ccc2ccccc21	inactive
COc1ccc(NC(=O)NS(=O)(=O)c2ccc(C)cc2)cc1OC	inactive
Cc1nnsc1-c1c(C(=O)N2CCOCC2)c(C)nn1-c1ccccc1	inactive
CCOc1ccc(N(CC)C(=O)c2nn(-c3ccc(OC)cc3)c(=O)c3c2c2ccccc2n3C)cc1	inconclusive [inhibitor, partial curve]
COc1ccc([N+](=O)[O-])cc1NC(=O)Cn1ccc(C(F)(F)F)n1	inconclusive [inhibitor, single point]
COc1ccc(Cl)cc1NC(=O)NCc1ccccn1	inconclusive [inhibitor, partial curve]
O=C(COc1coc(CN2CCCc3ccccc32)cc1=O)Nc1cccc([N+](=O)[O-])c1	inconclusive [inhibitor, full curve]
COC(=O)c1ccc(-n2c(CCC(=O)O)ccc2-c2ccccc2)cc1	inactive
